# Some of the results follow.
# Experiments:
# Assay in all cases: glycan array binding signal (z-score within array); higher = stronger binding
# Conditions in all cases: glycan notation: IUPAC condensed, linker removed
# [1] = molecular target: Fuc(a1-3)[Gal(b1-4)]GlcNAc(b1-3)Gal(b1-4)[Fuc(a1-3)]GlcNAc
# Summary of the method: (§1)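 From the Consortium for Functional Glycomics database, 3228 arrays were curated, keeping only those whose protein sequence was available. Binding is given as a within-array Z-score averaged across arrays sharing a protein sequence and across linkers. Negative Z-scores can be read as non-binding.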
# [2] = molecular target: Fuc(a1-3)[Gal(b1-4)]GlcNAc(b1-3)Gal(b1-4)[Fuc(a1-3)]GlcNAc(b1-3)Gal(b1-4)[Fuc(a1-3)]GlcNAc
# Summary of the method: as §1
# [3] = molecular target: Fuc(a1-3)[Gal(b1-4)]GlcNAc(b1-3)GalNAc
# Summary of the method: as §1
# [4] = molecular target: Fuc(a1-3)[Gal(b1-4)]GlcNAc(b1-6)GalNAc
# Summary of the method: as §1
# [5] = molecular target: Fuc(a1-3)[Gal(b1-4)]GlcNAc(b1-6)[Gal(b1-3)GlcNAc(b1-3)]Gal(b1-4)Glc
# Summary of the method: as §1
# [6] = molecular target: Fuc(a1-3)[Gal(b1-4)]GlcNAc6S
# Summary of the method: as §1
# [7] = molecular target: Fuc(a1-3)[Gal3S(b1-4)]Glc
# Summary of the method: as §1
# [8] = molecular target: Fuc(a1-3)[Gal3S(b1-4)]GlcNAc
# Summary of the method: as §1
# [9] = molecular target: Fuc(a1-3)[Gal3S(b1-4)]GlcNAc6S
# Summary of the method: as §1
# [10] = molecular target: Fuc(a1-3)[GalNAc(b1-4)]GlcNAc
# Summary of the method: as §1
# [11] = molecular target: Fuc(a1-3)[GalNAc(b1-4)]GlcNAc6S
# Summary of the method: as §1
# [12] = molecular target: Fuc(a1-4)GlcNAc
# Summary of the method: as §1
# [13] = molecular target: Fuc(b1-3)GlcNAc
# Summary of the method: as §1
# [14] = molecular target: Gal(a1-2)Gal
# Summary of the method: as §1
# [15] = molecular target: Gal(a1-3)Gal
# Summary of the method: as §1
# [16] = molecular target: Gal(a1-3)Gal(b1-3)GlcNAc
# Summary of the method: as §1
# [17] = molecular target: Gal(a1-3)Gal(b1-3)GlcNAc(b1-2)Man
# Summary of the method: as §1
# [18] = molecular target: Gal(a1-3)Gal(b1-3)GlcNAc(b1-2)Man(a1-3)[Gal(a1-3)Gal(b1-3)GlcNAc(b1-2)Man(a1-6)]Man(b1-4)GlcNAc(b1-4)GlcNAc
# Summary of the method: as §1
# [19] = molecular target: Gal(a1-3)Gal(b1-3)GlcNAc(b1-3)GalNAc
# Summary of the method: as §1
# [20] = molecular target: Gal(a1-3)Gal(b1-3)GlcNAc(b1-6)GalNAc
# Summary of the method: as §1
# [21] = molecular target: Gal(a1-3)Gal(b1-3)[Fuc(a1-4)]GlcNAc(b1-2)Man(a1-3)[Gal(a1-3)Gal(b1-3)[Fuc(a1-4)]GlcNAc(b1-2)Man(a1-6)]Man(b1-4)GlcNAc(b1-4)GlcNAc
# Summary of the method: as §1
# [22] = molecular target: Gal(a1-3)Gal(b1-4)Glc
# Summary of the method: as §1
# [23] = molecular target: Gal(a1-3)Gal(b1-4)GlcNAc
# Summary of the method: as §1
# [24] = molecular target: Gal(a1-3)Gal(b1-4)GlcNAc(b1-2)Man
# Summary of the method: as §1
# [25] = molecular target: Gal(a1-3)Gal(b1-4)GlcNAc(b1-2)Man(a1-3)[Gal(a1-3)Gal(b1-4)GlcNAc(b1-2)Man(a1-6)]Man(b1-4)GlcNAc(b1-4)GlcNAc
# Summary of the method: as §1
# [26] = molecular target: Gal(a1-3)Gal(b1-4)GlcNAc(b1-3)GalNAc
# Summary of the method: as §1
# [27] = molecular target: Gal(a1-3)Gal(b1-4)GlcNAc(b1-6)GalNAc
# Summary of the method: as §1
# [28] = molecular target: Gal(a1-3)Gal(b1-4)[Fuc(a1-3)]GlcNAc
# Summary of the method: as §1
# [29] = molecular target: Gal(a1-3)Gal(b1-4)[Fuc(a1-3)]GlcNAc(b1-2)Man(a1-3)[Gal(a1-3)Gal(b1-4)[Fuc(a1-3)]GlcNAc(b1-2)Man(a1-6)]Man(b1-4)GlcNAc(b1-4)GlcNAc
# Summary of the method: as §1
# [30] = molecular target: Gal(a1-3)GalNAc
# Summary of the method: as §1
# [31] = molecular target: Gal(a1-3)[Gal(a1-4)]Gal(b1-4)GlcNAc
# Summary of the method: as §1
# [32] = molecular target: Gal(a1-4)Gal(b1-3)GlcNAc(b1-2)Man(a1-3)[Gal(a1-4)Gal(b1-3)GlcNAc(b1-2)Man(a1-6)]Man(b1-4)GlcNAc(b1-4)GlcNAc
# Summary of the method: as §1
# [33] = molecular target: Gal(a1-4)Gal(b1-4)Glc
# Summary of the method: as §1
# [34] = molecular target: Gal(a1-4)Gal(b1-4)GlcNAc
# Summary of the method: as §1
# [35] = molecular target: Gal(a1-4)Gal(b1-4)GlcNAc(b1-2)Man(a1-3)[Gal(a1-4)Gal(b1-4)GlcNAc(b1-2)Man(a1-6)]Man(b1-4)GlcNAc(b1-4)GlcNAc
# Summary of the method: as §1
# [36] = molecular target: Gal(a1-4)Gal(b1-4)GlcNAc(b1-3)Gal(b1-4)Glc
# Summary of the method: as §1
# [37] = molecular target: Gal(a1-4)GlcNAc
# Summary of the method: as §1
# [38] = molecular target: Gal(a1-6)Glc
# Summary of the method: as §1
binder,measurement,setting,value
FGFR2-Fc (protein) MVNVTDAISSGDDEDDTDGAEDFVSENSNNKRAPYWTNTEKMEKRLHAVPAANTVKFRCPAGGNPMPTMRWLKNGKEFKQEHRIGGYKVRNQHWSLIMESVVPSDKGNYTCVVENEYGSINHTYHLDVVERSPHRPILQAGLPANASTVVGGDVEFVCKVYSDAQPHIQWIKHVEKNGSKYGPDGLPYLKVLKHSGINSSNAEVLALFNVTEADAGEYICKVSNYIGQANQSAWLTVLPKQQAPGREKEITASPDYLETRPLEQKLISEEDLAANDILDYKDDDDKV,glycan array binding signal (z-score),[1],0.394
same,glycan array binding signal (z-score),[2],-0.375
same,glycan array binding signal (z-score),[3],0.287
same,glycan array binding signal (z-score),[4],-0.006
same,glycan array binding signal (z-score),[5],-0.327
same,glycan array binding signal (z-score),[6],1.73
same,glycan array binding signal (z-score),[7],-0.104
same,glycan array binding signal (z-score),[8],-0.17
same,glycan array binding signal (z-score),[9],-0.073
same,glycan array binding signal (z-score),[10],0.028
same,glycan array binding signal (z-score),[11],-0.239
same,glycan array binding signal (z-score),[12],0.356
same,glycan array binding signal (z-score),[13],-0.312
same,glycan array binding signal (z-score),[14],-0.645
same,glycan array binding signal (z-score),[15],0.452
same,glycan array binding signal (z-score),[16],-0.278
same,glycan array binding signal (z-score),[17],-0.109
same,glycan array binding signal (z-score),[18],-0.44
same,glycan array binding signal (z-score),[19],-0.312
same,glycan array binding signal (z-score),[20],-0.722
same,glycan array binding signal (z-score),[21],-0.292
same,glycan array binding signal (z-score),[22],-0.089
same,glycan array binding signal (z-score),[23],0.658
same,glycan array binding signal (z-score),[24],-0.781
same,glycan array binding signal (z-score),[25],0.17
same,glycan array binding signal (z-score),[26],-0.299
same,glycan array binding signal (z-score),[27],-0.228
same,glycan array binding signal (z-score),[28],-1.08
same,glycan array binding signal (z-score),[29],-0.096
same,glycan array binding signal (z-score),[30],-0.158
same,glycan array binding signal (z-score),[31],0.989
same,glycan array binding signal (z-score),[32],0.012
same,glycan array binding signal (z-score),[33],-0.145
same,glycan array binding signal (z-score),[34],-0.307
same,glycan array binding signal (z-score),[35],0.803
same,glycan array binding signal (z-score),[36],-0.278
same,glycan array binding signal (z-score),[37],-0.514
same,glycan array binding signal (z-score),[38],-0.488

# Source: the supplement of paper PMC8728848
